{"source": "PubChem BioAssay AID624260", "about": "(Broad Institute, 2012)", "note": "Hit rate of the full screen: of about 44,000 compounds, about 30 (0.07%) were called active. The shares of active, inactive and inconclusive entries below differ from those in the screen. Cut-off read from the data, not from the text of the source: active = inhibition above about 54% (passing the limit was not always enough); inconclusive = no clear call, values can overlap the other calls.", "data": [{"biological_target": "Histone-lysine N-methyltransferase NSD2 (Homo sapiens) (UniProt O96028)", "sequence (O96028 whole entry, looked up)": "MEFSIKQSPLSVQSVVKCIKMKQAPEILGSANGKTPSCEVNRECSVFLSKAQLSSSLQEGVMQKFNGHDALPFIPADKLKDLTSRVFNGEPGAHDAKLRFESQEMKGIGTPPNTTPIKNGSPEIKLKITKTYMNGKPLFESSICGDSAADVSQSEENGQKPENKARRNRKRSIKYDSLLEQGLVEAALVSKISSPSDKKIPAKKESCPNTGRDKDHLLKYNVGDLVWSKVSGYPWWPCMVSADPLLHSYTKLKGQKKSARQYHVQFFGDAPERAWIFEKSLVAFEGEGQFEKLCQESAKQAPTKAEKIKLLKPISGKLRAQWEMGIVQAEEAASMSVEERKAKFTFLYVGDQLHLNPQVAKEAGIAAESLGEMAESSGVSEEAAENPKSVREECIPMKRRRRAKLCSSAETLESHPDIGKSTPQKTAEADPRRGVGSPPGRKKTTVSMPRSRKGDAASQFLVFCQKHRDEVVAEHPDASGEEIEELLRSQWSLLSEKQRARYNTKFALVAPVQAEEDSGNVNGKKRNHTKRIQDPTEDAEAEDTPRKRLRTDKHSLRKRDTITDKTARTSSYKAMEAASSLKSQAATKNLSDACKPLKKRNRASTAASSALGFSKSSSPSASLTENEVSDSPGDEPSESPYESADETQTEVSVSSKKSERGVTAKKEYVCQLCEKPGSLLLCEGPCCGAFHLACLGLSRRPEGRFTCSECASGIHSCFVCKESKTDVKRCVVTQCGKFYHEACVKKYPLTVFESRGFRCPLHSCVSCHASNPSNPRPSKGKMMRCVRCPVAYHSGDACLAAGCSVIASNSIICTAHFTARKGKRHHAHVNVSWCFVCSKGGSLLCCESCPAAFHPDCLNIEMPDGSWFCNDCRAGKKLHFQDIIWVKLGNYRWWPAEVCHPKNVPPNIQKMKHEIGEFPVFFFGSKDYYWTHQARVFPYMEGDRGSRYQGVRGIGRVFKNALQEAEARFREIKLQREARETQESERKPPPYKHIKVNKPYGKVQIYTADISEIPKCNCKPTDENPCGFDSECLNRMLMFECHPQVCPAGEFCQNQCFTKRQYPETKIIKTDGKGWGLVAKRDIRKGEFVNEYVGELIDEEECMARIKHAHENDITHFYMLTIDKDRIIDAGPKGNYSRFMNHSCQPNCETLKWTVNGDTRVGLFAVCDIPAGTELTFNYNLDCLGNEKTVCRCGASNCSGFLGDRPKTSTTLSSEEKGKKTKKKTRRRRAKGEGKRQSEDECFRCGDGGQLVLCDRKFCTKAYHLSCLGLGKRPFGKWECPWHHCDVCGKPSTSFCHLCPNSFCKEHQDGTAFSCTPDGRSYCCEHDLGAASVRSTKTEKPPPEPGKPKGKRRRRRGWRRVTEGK", "experiment": "NSD2 histone methyltransferase activity blockers – biochemical, plate reader, single point, primary screen (AID 624260);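 note: inhibitors reduce the monomethyl H3K36 fluorescence signal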", "settings": "NSD2-SET H3K36me1 DELFIA fluorescence, at 12.5 µM, stronger effect = higher value", "values": [{"smiles": "C[C@@H]1CN([C@H](C)CO)C(=O)Cc2cc(NC(=O)CCN3CCOCC3)ccc2O[C@H]1CN(C)Cc1ccc(C(=O)Nc2ccccc2N)cc1", "inhibition": "inactive: -4.01%"}, {"smiles": "O=C(NO)c1ccc(C(=O)N/N=C/c2cc(Br)cc([N+](=O)[O-])c2O)cc1", "inhibition": "inactive: -2.37%"}, {"smiles": "COCCOC(=O)N1C(=O)[C@@]2(c3cc(C#CC4=CCCCC4)ccc31)[C@H](C(=O)N1CCN(c3ncccn3)CC1)[C@H]1C(=O)O[C@H](c3ccccc3)[C@H](c3ccccc3)N1[C@@H]2c1ccc(O)cc1", "inhibition": "inactive: 2.72%"}, {"smiles": "C=CCC/C=N/NC(=O)CCCCCCC(=O)O", "inhibition": "inactive: 0.0015%"}, {"smiles": "C=C(CCCCCCCC(=O)O)C(=O)O", "inhibition": "inactive: 0.401%"}, {"smiles": "O=c1c(OC2OCC(O)C(O)C2O)c(-c2ccc(O)c(O)c2)oc2cc(O)cc(O)c12", "note": "(stereo not drawn)", "inhibition": "active: 59.6%"}, {"smiles": "C[C@@H]1CCCCO[C@H](CN(C)C(=O)Nc2ccccc2)[C@@H](C)CN([C@H](C)CO)C(=O)c2cc(NC(=O)CCC(F)(F)F)ccc2O1", "inhibition": "inconclusive: 142%"}, {"smiles": "Cc1ccccc1/C=N/NC(=O)CCCCC(=O)NO", "inhibition": "inactive: -2.82%"}, {"smiles": "COc1ccc(C#Cc2ccc3c(c2)[C@]2(C(=O)N3)[C@H](C(=O)O)[C@H]3C(=O)O[C@H](c4ccccc4)[C@H](c4ccccc4)N3[C@@H]2c2ccc(OCCO)cc2)cc1", "inhibition": "inconclusive: 56%"}, {"smiles": "CN1C(=O)N[C@@H]2c3ccccc3O[C@@]1(C)[C@@H]2CO[Si](C)(C)C(C)(C)C", "inhibition": "inactive: 10.5%"}, {"smiles": "COc1cc(CO)ccc1OC(C)=O", "inhibition": "inactive: -1.56%"}, {"smiles": "O=C(CCCCCCC(=O)Nc1ccccc1O)N/N=C\\c1ccc2ccccc2n1", "inhibition": "inactive: -11.1%"}, {"smiles": "CC1=CCC2C(C)(CC[C@H](O)C2(C)C)C1COc1ccc2ccc(=O)oc2c1", "note": "(stereo partly drawn)", "inhibition": "inactive: -6.41%"}, {"smiles": "C[C@@H]1CN([C@H](C)CO)C(=O)c2cc(C#CCN(C)C)cnc2O[C@H]1CN(C)C(=O)c1cnccn1", "inhibition": "inconclusive: 182%"}, {"smiles": "CO[C@H]1O[C@H](CO)[C@@H](OC(=O)Nc2ccccc2)[C@H](OC(=O)Nc2ccccc2-c2ccccc2)[C@@H]1OC(=O)Nc1ccccc1-c1ccccc1", "inhibition": "inactive: -7.3%"}, {"smiles": "C[C@H](CO)N1C[C@H](C)[C@@H](CN(C)Cc2ccc(C(=O)O)cc2)Oc2ccc(NC(=O)CCCN(C)C)cc2C1=O", "inhibition": "inconclusive: 68.1%"}, {"smiles": "CS(=O)(=O)Nc1ccc2c(c1)[C@@H]1C[C@@H](CC(=O)NCc3ccccn3)O[C@@H](CO)[C@@H]1O2", "inhibition": "inconclusive: 61.1%"}, {"smiles": "C[C@H](CO)N1C[C@H](C)[C@H](CN(C)C(=O)c2ccccn2)Oc2ncc(-c3ccccc3F)cc2C1=O", "inhibition": "inconclusive: 82.6%"}, {"smiles": "CC12CCCCC1(O)N(O)C(C(=O)c1ccccc1)=N2", "note": "(stereo not drawn)", "inhibition": "inactive: -1.49%"}, {"smiles": "CCCNC(=O)N(C)C[C@H]1Oc2cc(-c3cncnc3)ccc2S(=O)(=O)N([C@H](C)CO)C[C@@H]1C", "inhibition": "inconclusive: 66.7%"}, {"smiles": "C[C@@H]1CCCCO[C@@H](CN(C)S(=O)(=O)c2cn(C)cn2)[C@@H](C)CN([C@H](C)CO)C(=O)c2cc(NS(=O)(=O)c3cn(C)cn3)ccc2O1", "inhibition": "inconclusive: 50.2%"}, {"smiles": "Cc1ccc(NCc2ccc(C(=O)Nc3ccccc3)cc2)cc1C", "inhibition": "inactive: 4.13%"}, {"smiles": "O=C1C(Cl)=C(NCCN2CCOCC2)C(=O)c2ncccc21", "inhibition": "active: 90.2%"}, {"smiles": "C[C@@H]1CN([C@@H](C)CO)C(=O)c2cc(NC(=O)Nc3ccccc3)ccc2O[C@@H](C)CCCCO[C@H]1CN(C)C(=O)CCC(F)(F)F", "inhibition": "inconclusive: 94.7%"}, {"smiles": "Cc1ccccc1-c1ccc2c(c1)O[C@@H](CN(C)Cc1ccc(C(=O)O)cc1)[C@H](C)CN([C@H](C)CO)S2(=O)=O", "inhibition": "inactive: -1.98%"}, {"smiles": "CSC(=O)OCC1=C[C@H](O)[C@@H]2C(C(=O)O)=CO[C@@H](OC3OC(CO)C(O)C(O)C3O)[C@H]12", "note": "(stereo partly drawn)", "inhibition": "inactive: 1.88%"}, {"smiles": "C[C@H](CO)N1C[C@H](C)[C@H](CN(C)C(=O)Nc2ccc(F)cc2)Oc2ccc(NC(=O)NC3CCCCC3)cc2CC1=O", "inhibition": "inconclusive: 77.3%"}, {"smiles": "C[C@H](CO)N1C[C@H](C)[C@@H](CN(C)C(=O)c2ccccn2)Oc2ncc(C#Cc3ccccc3)cc2C1=O", "inhibition": "inconclusive: 65%"}, {"smiles": "O=C(N/N=C/c1ccoc1)c1ccccn1", "inhibition": "inactive: -0.437%"}, {"smiles": "CC(C)NC(=O)N(C)C[C@@H]1Oc2ncc(C#Cc3ccc(F)cc3)cc2C(=O)N([C@@H](C)CO)C[C@H]1C", "inhibition": "inconclusive: 65%"}, {"smiles": "Cc1ccc(C(C)C)c(OCC(=O)/C=C2\\Sc3ccccc3N2C)c1", "inhibition": "inactive: -9.03%"}, {"smiles": "C[C@H](CO)N1C[C@H](C)[C@H](CN(C)C(=O)Nc2ccccc2)Oc2ccc(NC(=O)Nc3ccccc3)cc2CC1=O", "inhibition": "inactive: 3.42%"}, {"smiles": "C[C@@H]1CN([C@@H](C)CO)C(=O)c2cc(N(C)C)ccc2O[C@@H](C)CCCCO[C@H]1CN(C)C(=O)CCC(F)(F)F", "inhibition": "inconclusive: 164%"}, {"smiles": "C[C@@H]1CCCCO[C@@H](CN(C)C)[C@@H](C)CN([C@H](C)CO)C(=O)c2cc(NS(=O)(=O)c3cn(C)cn3)ccc2O1", "inhibition": "inconclusive: 198%"}, {"smiles": "C/C=C/c1ccc2c(c1)O[C@H](CN(C)C(=O)Cc1ccccc1)[C@H](C)CN([C@H](C)CO)S2(=O)=O", "inhibition": "inactive: 1.5%"}, {"smiles": "Cc1[nH]c(/C=C2\\C(=O)Nc3ccc(S(=O)(=O)Cc4c(Cl)cccc4Cl)cc32)c(C)c1C(=O)N1CCC[C@@H]1CN1CCCC1", "inhibition": "active: 67.1%"}, {"smiles": "CC(=O)N(C)C[C@H]1Oc2ncc(C#Cc3ccccc3F)cc2C(=O)N([C@H](C)CO)C[C@@H]1C", "inhibition": "inconclusive: 50.4%"}, {"smiles": "O=C(NO)c1cccc(C(=O)N/N=C/c2ccc(O)c(O)c2O)c1", "inhibition": "active: 63%"}, {"smiles": "CC(C)NC(=O)N(C)C[C@H]1Oc2c(NC(=O)c3cnccn3)cccc2C(=O)N([C@@H](C)CO)C[C@@H]1C", "inhibition": "inactive: -1.43%"}, {"smiles": "Cc1ccc(S(=O)(=O)N(C)C[C@@H]2Oc3ccc(NC(=O)CCCN(C)C)cc3CC(=O)N([C@H](C)CO)C[C@@H]2C)cc1", "inhibition": "inconclusive: 52.4%"}, {"smiles": "O=C(O)CCCCCCC(=O)N/N=C/C1CCCCC1", "inhibition": "inactive: -12.2%"}, {"smiles": "O=C(O)CNc1ncnc2oc(-c3ccccc3)c(-c3ccccc3)c12", "inhibition": "inactive: -0.402%"}, {"smiles": "C[C@@H]1CCCCO[C@H](CN(C)C(=O)C2CCCCC2)[C@@H](C)CN([C@@H](C)CO)C(=O)c2cc(N(C)C)ccc2O1", "inhibition": "inconclusive: 83.9%"}, {"smiles": "C[C@@H]1CCCCO[C@H](CN(C)C)[C@@H](C)CN([C@H](C)CO)C(=O)c2cc(NC(=O)c3ccccc3)ccc2O1", "inhibition": "inconclusive: 91.5%"}, {"smiles": "C[C@@H]1CCCCO[C@H](CN(C)S(=O)(=O)c2cccs2)[C@H](C)CN([C@@H](C)CO)C(=O)c2cc(NS(C)(=O)=O)ccc2O1", "inhibition": "inactive: -4.25%"}, {"smiles": "C[C@@H]1CN([C@@H](C)CO)C(=O)c2cc(NC(=O)CCN3CCOCC3)ccc2O[C@H]1CN(C)Cc1ccc(C(F)(F)F)cc1", "inhibition": "inactive: 2.12%"}, {"smiles": "O=C(O)CCCCCCC(=O)Nc1ccc(C2CC(CSc3nc(-c4ccccc4)c(-c4ccccc4)o3)OC(c3ccccc3)O2)cc1", "note": "(stereo not drawn)", "inhibition": "inactive: 40.9%"}, {"smiles": "C/C=C/c1cnc2c(c1)C(=O)N([C@@H](C)CO)C[C@H](C)[C@@H](CN(C)Cc1ccccc1F)O2", "inhibition": "inconclusive: 62.5%"}, {"smiles": "O=C(C[C@H]1C=C[C@H](NS(=O)(=O)c2cccc(F)c2)[C@@H](CO)O1)N1CCCCC1", "inhibition": "inactive: 0.797%"}, {"smiles": "Cc1cc(-c2ccc(N=Nc3cc(S(=O)(=O)O)c4ccccc4c3N)c(C)c2)ccc1N=Nc1cc(S(=O)(=O)O)c2ccccc2c1N", "inhibition": "active: 91.6%"}, {"smiles": "C[C@@H]1CCCCO[C@H](CN(C)C(=O)CCC(F)(F)F)[C@@H](C)CN([C@H](C)CO)C(=O)c2cc(NC(=O)c3ccncc3)ccc2O1", "inhibition": "inconclusive: 132%"}, {"smiles": "C[C@@H]1CN([C@@H](C)CO)C(=O)c2cccc(NS(=O)(=O)c3ccccc3)c2O[C@@H]1CN(C)Cc1ccccc1", "inhibition": "inactive: -5.35%"}, {"smiles": "C[C@@H]1CN([C@@H](C)CO)C(=O)c2cc(NC(=O)Nc3ccccc3)ccc2O[C@@H](C)CCCCO[C@H]1CN(C)C(=O)C1CCCCC1", "inhibition": "inconclusive: 154%"}, {"smiles": "Cc1nn(C)c(C)c1CN(C)C(=O)c1cc2nc(-c3ccc(Cl)cc3)cc(C(F)(F)F)n2n1", "inhibition": "inactive: -0.057%"}, {"smiles": "COC(=O)c1cn(CC(=O)Nc2ccon2)nn1", "inhibition": "inactive: -3.22%"}, {"smiles": "CC(C)NC(=O)Nc1ccc2c(c1)C(=O)N([C@@H](C)CO)C[C@H](C)[C@@H](CN(C)Cc1ccc(C(=O)O)cc1)OCCCC[C@H](C)O2", "inhibition": "inconclusive: 167%"}, {"smiles": "COc1c(O)cc2c(=O)oc3c(OC)c(O[C@@H]4OC[C@@H](O)[C@H](O)[C@H]4O)cc4c(=O)oc1c2c34", "inhibition": "inactive: 31.8%"}, {"smiles": "CCCN(C)C[C@H]1OCCCC[C@@H](C)Oc2ccc(NS(=O)(=O)c3c(C)noc3C)cc2C(=O)N([C@@H](C)CO)C[C@H]1C", "inhibition": "inactive: -11.7%"}, {"smiles": "COCC#Cc1ccc2c(c1)O[C@H](CN(C)C(=O)c1ccccc1)[C@H](C)CN([C@@H](C)CO)S2(=O)=O", "inhibition": "inactive: -3.39%"}, {"smiles": "CC1(C)CC[C@]2(C(=O)O)CC[C@]3(C)C(=CCC4[C@@]5(C)C[C@@H](O)[C@H](O)[C@](C)(CO)C5CC[C@]43C)[C@@H]2[C@@H]1O", "note": "(stereo partly drawn)", "inhibition": "inactive: 2.14%"}, {"smiles": "CCc1ccc(OCc2ccccc2C(=O)Nc2ccc3nc(C)cc(N)c3c2)cc1", "inhibition": "inconclusive: 56%"}, {"smiles": "C[C@@H]1CCCCO[C@H](CN(C)S(=O)(=O)c2ccccc2)[C@H](C)CN([C@H](C)CO)C(=O)c2cc(NS(C)(=O)=O)ccc2O1", "inhibition": "inconclusive: 109%"}, {"smiles": "C[C@H](O)C#Cc1ccc2c(c1)O[C@H](CN(C)Cc1ccc(-c3ccccc3)cc1)[C@@H](C)CN([C@@H](C)CO)S2(=O)=O", "inhibition": "inconclusive: 144%"}]}]}
